# Data as given in a collection of fitness landscapes (doi:10.1126/science.1257360).
# This is one part of the list.
# B1: PhoQ; a variant is named by its letters at X, in order, P23837 (parent)
# chain: MKKLLRLFFPLSLRVRFLLATAAVVLVLSLAYGMVALIGYSVSFDKTTFRLLRGESNLFYTLAKWENNKLHVELPENIDKQSPTMTLIYDENGQLLWAQRDVPWLMKMIQPDWLKSNGFHEIEADVNDTSLLLSGDHSIQQQLQEVREDDDDAEMTHSVAVNVYPATSRMPKLTIVVVDTIPVELKSSYMVWSWFIYVLSANLLLVIPLLWVAAWWSLRPIEALAKEVRELEEHNRELLNPATTRELTSLVRNLNRLLKSERERYDKYRTTLTDLTHSLKTPLXXLQXXLRSLRSEKMSVSDAEPVMLEQISRISQQIGYYLHRASMRGGTLLSRELHPVAPLLDNLTSALNKVYQRKGVNISLDISPEISFVGEQNDFVEVMGNVLDNACKYCLEFVEISARQTDEHLYIVVEDDGPGIPLSKREVIFDRGQRVDTLRPGQGVGLAVAREITEQYEGKIVAGESMLGGARMEVIFGRQHSAPKDE
# Variants of: B1
# Assay: enrichment ratio after two sorts for PhoP signalling (ratio (wild type AVST 3.29)); higher = more functional
# Conditions: with PhoP (E. coli)
row,Variant,enrichment ratio
1,IIYC,≤ 0.25
2,FGMS,0.618
3,TITF,≤ 0.25
4,LTRR,≤ 0.25
5,QPPP,≤ 0.25
6,YLNI,≤ 0.25
7,FNTM,≤ 0.25
8,TTQF,22.7
9,GDIL,8.6
10,LKAR,≤ 0.25
11,DELD,2.25
12,ECDR,≤ 0.25
13,EFVR,≤ 0.25
14,QVCR,≤ 0.25
15,GSAC,≤ 0.25
16,VMDH,≤ 0.25
17,GYST,≤ 0.25
18,FGRG,≤ 0.25
19,QYSW,≤ 0.25
20,RGTF,≤ 0.25
21,ITQR,≤ 0.25
22,ETGD,≤ 0.25
23,FECM,5
24,GINI,≤ 0.25

row,Variant,enrichment ratio
1,WDAL,≤ 0.25
2,KMMN,≤ 0.25
3,NSGT,≤ 0.25
4,FSVK,≤ 0.25
5,VPQE,≤ 0.25
6,NHHW,≤ 0.25
7,DNPP,≤ 0.25
8,VNPN,≤ 0.25
9,PIFE,≤ 0.25
10,GKFL,≤ 0.25
11,KQCN,≤ 0.25
12,KNLH,≤ 0.25
13,YEGE,≤ 0.25
14,RGRN,≤ 0.25
15,IFDG,≤ 0.25
16,RNFM,≤ 0.25
17,VCTH,≤ 0.25
18,SAHM,≤ 0.25
19,RDQM,≤ 0.25
20,EETS,≤ 0.25
21,GAHK,≤ 0.25
22,NFAM,≤ 0.25
23,NKNN,≤ 0.25
24,PQSN,≤ 0.25

row,Variant,enrichment ratio
1,PGLD,≤ 0.25
2,VEEC,≤ 0.25
3,GWRC,≤ 0.25
4,YCVG,≤ 0.25
5,HSHP,≤ 0.25
6,EPSM,≤ 0.25
7,WPYR,≤ 0.25
8,TPRS,≤ 0.25
9,HPLS,≤ 0.25
10,PFYI,≤ 0.25
11,ICWA,≤ 0.25
12,PNFV,≤ 0.25
13,AHDH,≤ 0.25
14,WVAF,≤ 0.25
15,TMMT,22.9
16,FDSY,≤ 0.25
17,SLLA,8.07
18,VTGG,≤ 0.25
19,PDYK,≤ 0.25
20,AFRM,≤ 0.25
21,RRHG,≤ 0.25
22,HPCN,≤ 0.25
23,EMFT,≤ 0.25
24,YHYD,≤ 0.25

row,Variant,enrichment ratio
1,KWLD,≤ 0.25
2,KPCE,≤ 0.25
3,LYRI,≤ 0.25
4,PCGH,≤ 0.25
5,LSLN,≤ 0.25
6,YPQQ,≤ 0.25
7,HNHK,≤ 0.25
8,FHRS,≤ 0.25
9,TEET,≤ 0.25
10,TVPW,≤ 0.25
11,AEWP,≤ 0.25
12,AYVY,≤ 0.25
13,VQIH,≤ 0.25
14,IGKN,≤ 0.25
15,PGAK,≤ 0.25
16,GGTW,≤ 0.25
17,DGYD,≤ 0.25
18,VECM,0.698
19,ISAY,≤ 0.25
20,KYRT,≤ 0.25
21,HDFD,≤ 0.25
22,IEAD,≤ 0.25
23,LKWS,≤ 0.25
24,PITC,≤ 0.25

row,Variant,enrichment ratio
1,ASKK,≤ 0.25
2,WQGN,≤ 0.25
3,NIQL,≤ 0.25
4,PRMA,≤ 0.25
5,HWGK,≤ 0.25
6,YSGK,≤ 0.25
7,FTGE,≤ 0.25
8,HTCQ,≤ 0.25
9,GMFV,≤ 0.25
10,WQGA,≤ 0.25
11,GHMK,≤ 0.25
12,IVVV,≤ 0.25
13,AIAS,9.4
14,FGNS,≤ 0.25
15,LVAI,≤ 0.25
16,NEFC,≤ 0.25
17,HYYH,≤ 0.25
18,FKKC,≤ 0.25
19,TAVM,2.01
20,WVWK,≤ 0.25
21,LPPG,≤ 0.25
22,TAVD,≤ 0.25
23,VWVT,≤ 0.25
24,AWWA,≤ 0.25

row,Variant,enrichment ratio
1,YQSF,≤ 0.25
2,SHIY,0.542
3,LIAP,≤ 0.25
4,RSIN,≤ 0.25
5,VVII,≤ 0.25
6,EFEC,≤ 0.25
7,GVLH,10.3
8,VNFK,≤ 0.25
9,PRAW,≤ 0.25
10,GVSY,≤ 0.25
11,AHIY,≤ 0.25
12,MKHM,≤ 0.25
13,EDSW,≤ 0.25
14,GQTN,≤ 0.25
15,EKFW,≤ 0.25
16,FGRY,≤ 0.25
17,RPMD,≤ 0.25
18,NTGH,≤ 0.25
19,PVIV,≤ 0.25
20,SVWL,≤ 0.25
21,DCYD,≤ 0.25
22,MFAK,≤ 0.25
23,HRGK,≤ 0.25
24,KLIQ,≤ 0.25

row,Variant,enrichment ratio
1,VGGG,≤ 0.25
2,IGNT,≤ 0.25
3,MESS,5.15
4,NLYG,≤ 0.25
5,THVI,2.32
6,WKQM,≤ 0.25
7,RQRA,≤ 0.25
8,WPFS,≤ 0.25
9,EADQ,≤ 0.25
10,NIIF,≤ 0.25
11,MDAI,3.77
12,LYHP,≤ 0.25
13,SKGV,0.285
14,SPFE,≤ 0.25
15,PQIY,≤ 0.25
16,HMLA,≤ 0.25
17,TNWN,≤ 0.25
18,PISC,≤ 0.25
19,WMAP,≤ 0.25
20,TFKK,≤ 0.25
21,YPNG,≤ 0.25
22,TLEM,≤ 0.25
23,HLHG,≤ 0.25
24,YTAP,≤ 0.25

row,Variant,enrichment ratio
1,PFHM,≤ 0.25
2,TRNM,≤ 0.25
3,VCSA,≤ 0.25
4,ALSF,12.1
5,TKYS,≤ 0.25
6,NGEG,≤ 0.25
7,IHYY,≤ 0.25
8,MPRY,≤ 0.25
9,PKIK,≤ 0.25
10,SMYV,≤ 0.25
11,RGDI,≤ 0.25
12,DMTH,≤ 0.25
13,VRLF,≤ 0.25
14,WFER,≤ 0.25
15,REQR,≤ 0.25
16,YECM,0.314
17,GFQN,≤ 0.25
18,TYKD,≤ 0.25
19,YWDL,≤ 0.25
20,WGPK,≤ 0.25
21,KEPP,≤ 0.25
22,KANV,≤ 0.25
23,YGQS,≤ 0.25
24,IGRF,≤ 0.25

row,Variant,enrichment ratio
1,LSMI,6.47
2,KFSK,≤ 0.25
3,DRLH,≤ 0.25
4,HMHP,≤ 0.25
5,GADY,≤ 0.25
6,SKVC,9.89
7,HMDW,≤ 0.25
8,GCKL,≤ 0.25
9,QIAW,≤ 0.25
10,DNYE,≤ 0.25
11,FHDW,≤ 0.25
12,WLRM,≤ 0.25
13,DFGE,≤ 0.25
14,DDCS,≤ 0.25
15,YSCF,0.842
16,WQMF,≤ 0.25
17,LNNY,1.79
18,KHDK,≤ 0.25
19,CIFN,≤ 0.25
20,ASGR,≤ 0.25
21,ALCR,6.94
22,QAGP,≤ 0.25
23,EPRI,≤ 0.25
24,MMRV,≤ 0.25

row,Variant,enrichment ratio
1,LQRH,≤ 0.25
2,KAII,≤ 0.25
3,KLKY,≤ 0.25
4,LQVR,≤ 0.25
5,VERG,≤ 0.25
6,GYDS,≤ 0.25
7,DIIY,≤ 0.25
8,ASCW,1.22
9,IMKR,≤ 0.25
10,YRLT,≤ 0.25
11,QVNP,≤ 0.25
12,TPAI,≤ 0.25
13,SYHS,≤ 0.25
14,TRHQ,≤ 0.25
15,TFKR,≤ 0.25
16,SAFP,≤ 0.25
17,VNIQ,≤ 0.25
18,NKGH,≤ 0.25
19,VFWI,≤ 0.25
20,TNLT,2.17
21,MDLQ,≤ 0.25
22,YRWF,≤ 0.25
23,NDFD,≤ 0.25
24,VCKH,≤ 0.25

row,Variant,enrichment ratio
1,PFHP,≤ 0.25
2,LANG,≤ 0.25
3,MHKT,≤ 0.25
4,QFFS,≤ 0.25
5,ERCP,≤ 0.25
6,ILMA,≤ 0.25
7,DMMM,≤ 0.25
8,WGMA,≤ 0.25
9,TERA,≤ 0.25
10,NNAE,≤ 0.25
11,HEHC,≤ 0.25
12,EGQH,≤ 0.25
13,NRDS,≤ 0.25
14,AAVT,2.41
15,ERMY,≤ 0.25
16,MQGI,≤ 0.25
17,QCTH,≤ 0.25
18,DYTE,≤ 0.25
19,FIFE,≤ 0.25
20,IIKA,≤ 0.25
21,MCLH,≤ 0.25
22,IIAA,≤ 0.25
23,VVYN,≤ 0.25
24,IAFS,≤ 0.25

row,Variant,enrichment ratio
1,RHST,≤ 0.25
2,ADVN,≤ 0.25
3,ICDE,≤ 0.25
4,GDFT,≤ 0.25
5,QYGT,≤ 0.25
6,PIAR,≤ 0.25
7,PIFH,≤ 0.25
8,PNSA,≤ 0.25
9,ACVE,≤ 0.25
10,GDYC,≤ 0.25
11,LWPE,≤ 0.25
12,KLTS,≤ 0.25
13,WIIW,≤ 0.25
14,MGDR,≤ 0.25
15,KIVD,≤ 0.25
16,EVFQ,≤ 0.25
17,YQGC,≤ 0.25
18,MDMT,≤ 0.25
19,EKNS,≤ 0.25
20,PMEL,≤ 0.25
21,CRLY,≤ 0.25
22,SAQV,0.569
23,WECG,3.2
24,FKTN,≤ 0.25

row,Variant,enrichment ratio
1,PPGN,≤ 0.25
2,WDNP,≤ 0.25
3,LTHM,3.95
4,NWDV,≤ 0.25
5,WGVD,≤ 0.25
6,RGNM,≤ 0.25
7,NNCE,≤ 0.25
8,EKII,≤ 0.25
9,VMFE,≤ 0.25
10,KALF,≤ 0.25
11,DRNR,≤ 0.25
12,YCDI,≤ 0.25
13,GPEN,≤ 0.25
14,ESEH,≤ 0.25
15,QDEL,≤ 0.25
16,YIFV,≤ 0.25
17,RFSW,≤ 0.25
18,SEWI,3.57
